Data as given in the supplement of paper PMC6089552.
In all, about 3,200 compounds went through this assay and about 300 (9.4%) showed activity. Only a part is listed here, and it is no random draw.

Tested on: A673/TR/shEF
Assay: cell viability (LOESS-normalised, relative to median of negative controls) (log2 ratio); higher = more viable cells (less compound effect), active = hit call of the paper (over 3 MAD below the median)
Conditions: treatment time: 72 h
How it was run: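 A673/TR/shEF Ewing sarcoma cells (1,500 per well, 384-well plates) were grown with or without doxycycline to induce EWS-FLI1 shRNA knockdown, starting 24 h before compounds. Library compounds at two or more concentrations, with DMSO controls, were added for three days. Cell viability was read by CellTiter-Glo luminescence on an Envision reader, then LOESS-corrected per plate, divided by the median of negative controls and log2-transformed. Hits were wells at least three median absolute deviations from the median of all screened wells.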

[1] = 0.25 µM, library screen: screen1, EWS-FLI1 expression: high (no doxycycline)
[2] = 0.25 µM, library screen: screen1, EWS-FLI1 expression: low (doxycycline-induced shRNA knockdown)
[3] = 2.5 µM, library screen: screen1, EWS-FLI1 expression: high (no doxycycline)
[4] = 2.5 µM, library screen: screen1, EWS-FLI1 expression: low (doxycycline-induced shRNA knockdown)
[5] = 0.103 µM, library screen: screen3, EWS-FLI1 expression: high (no doxycycline)
[6] = 0.103 µM, library screen: screen3, EWS-FLI1 expression: low (doxycycline-induced shRNA knockdown)
[7] = 0.308 µM, library screen: screen3, EWS-FLI1 expression: high (no doxycycline)
[8] = 0.308 µM, library screen: screen3, EWS-FLI1 expression: low (doxycycline-induced shRNA knockdown)
[9] = 0.926 µM, library screen: screen3, EWS-FLI1 expression: high (no doxycycline)
[10] = 0.926 µM, library screen: screen3, EWS-FLI1 expression: low (doxycycline-induced shRNA knockdown)
[11] = 2.8 µM, library screen: screen3, EWS-FLI1 expression: high (no doxycycline)
[12] = 2.8 µM, library screen: screen3, EWS-FLI1 expression: low (doxycycline-induced shRNA knockdown)
[13] = 8.3 µM, library screen: screen3, EWS-FLI1 expression: high (no doxycycline)
[14] = 8.3 µM, library screen: screen3, EWS-FLI1 expression: low (doxycycline-induced shRNA knockdown)
[15] = 25 µM, library screen: screen3, EWS-FLI1 expression: high (no doxycycline)
[16] = 25 µM, library screen: screen3, EWS-FLI1 expression: low (doxycycline-induced shRNA knockdown)
[17] = 0.25 µM, library screen: screen2, EWS-FLI1 expression: high (no doxycycline)
[18] = 0.25 µM, library screen: screen2, EWS-FLI1 expression: low (doxycycline-induced shRNA knockdown)
[19] = 2.5 µM, library screen: screen2, EWS-FLI1 expression: high (no doxycycline)
[20] = 2.5 µM, library screen: screen2, EWS-FLI1 expression: low (doxycycline-induced shRNA knockdown)

CC(C)[C@@H](C)C=C[C@@H](C)[C@H]1CC[C@H]2C3=CCC4CC(=O)CC[C@]4(C)[C@H]3CC[C@]12C (stereo not given in full)
cell viability (log2) [1]: inactive: 0.0656
cell viability (log2) [2]: inactive: 0.0592
cell viability (log2) [3]: inactive: 0.126
cell viability (log2) [4]: inactive: 0.0808

Cc1[nH]ccc2c1[nH]c1cc(=O)ccc12
cell viability (log2) [1]: inactive: 0.0692
cell viability (log2) [2]: inactive: -0.0204
cell viability (log2) [3]: inactive: 0.0627
cell viability (log2) [4]: inactive: 0.0642

CC(=O)Oc1ccccc1C(=O)Nc1ncc([N+](=O)[O-])s1
cell viability (log2) [5]: inactive: 0.122
cell viability (log2) [6]: inactive: -0.0727
cell viability (log2) [7]: inactive: 0.204
cell viability (log2) [8]: inactive: 0.0472
cell viability (log2) [9]: inactive: 0.0737
cell viability (log2) [10]: inactive: 0.0817
cell viability (log2) [11]: inactive: 0.174
cell viability (log2) [12]: inactive: 0.0984
cell viability (log2) [13]: inactive: 0.0642
cell viability (log2) [14]: inactive: 0.119
cell viability (log2) [15]: inactive: 0.0779
cell viability (log2) [16]: inactive: 0.11

Oc1cc(O)c2c(c1)O[C@H](c1ccc(O)c(O)c1)[C@@H](O)C2
cell viability (log2) [1]: inactive: 0.1
cell viability (log2) [2]: inactive: -0.0966
cell viability (log2) [17]: inactive: 0.194
cell viability (log2) [18]: inactive: 0.105
cell viability (log2) [3]: inactive: 0.117
cell viability (log2) [4]: inactive: 0.0971
cell viability (log2) [19]: inactive: 0.073
cell viability (log2) [20]: inactive: 0.0566

CCN(CC)CCOC(=O)C1(C2CCCCC2)CCCCC1
cell viability (log2) [1]: inactive: 0.0984
cell viability (log2) [2]: inactive: 0.0928
cell viability (log2) [17]: inactive: 0.151
cell viability (log2) [18]: inactive: 0.0876
cell viability (log2) [3]: inactive: 0.266
cell viability (log2) [4]: inactive: 0.156
cell viability (log2) [19]: inactive: 0.136
cell viability (log2) [20]: inactive: 0.0918

O=c1cc(-c2ccccc2)oc2c(O)c(O)ccc12
cell viability (log2) [1]: inactive: 0.189
cell viability (log2) [2]: inactive: -0.0108
cell viability (log2) [3]: inactive: 0.128
cell viability (log2) [4]: inactive: 0.0489

O=C1c2c(O)cccc2Cc2cccc(O)c21
cell viability (log2) [1]: inactive: 0.0647
cell viability (log2) [2]: inactive: 0.0789
cell viability (log2) [3]: inactive: 0.0847
cell viability (log2) [4]: inactive: 0.13

C#CC(N)CCC(=O)O (stereo not given)
cell viability (log2) [17]: inactive: -0.0331
cell viability (log2) [18]: inactive: -0.00776
cell viability (log2) [19]: inactive: 0.146
cell viability (log2) [20]: inactive: 0.0747

O=C1C[C@@H](c2ccccc2)Oc2cc(O)cc(O)c21
cell viability (log2) [1]: inactive: 0.1
cell viability (log2) [2]: inactive: -0.031
cell viability (log2) [3]: inactive: 0.0675
cell viability (log2) [4]: inactive: -0.0933

COC(=O)C1=C(C)NC(C)=C([N+](=O)[O-])C1c1ccccc1C(F)(F)F (stereo not given)
cell viability (log2) [17]: inactive: 0.112
cell viability (log2) [18]: inactive: 0.125
cell viability (log2) [19]: inactive: 0.175
cell viability (log2) [20]: inactive: 0.0692

COc1cc(C(=O)OCCCN2CCCN(CCCOC(=O)c3cc(OC)c(OC)c(OC)c3)CC2)cc(OC)c1OC
cell viability (log2) [17]: inactive: 0.105
cell viability (log2) [18]: inactive: 0.0948
cell viability (log2) [19]: inactive: 0.199
cell viability (log2) [20]: inactive: 0.123

COc1ccc(-c2ccc3c(N4CCOC[C@@H]4C)nc(N4CCOC[C@@H]4C)nc3n2)cc1CO
cell viability (log2) [5]: active: -0.268
cell viability (log2) [6]: active: -0.292
cell viability (log2) [7]: active: -0.621
cell viability (log2) [8]: active: -0.525
cell viability (log2) [9]: active: -1.05
cell viability (log2) [10]: active: -0.821
cell viability (log2) [11]: active: -1.66
cell viability (log2) [12]: active: -1.37
cell viability (log2) [13]: active: -1.89
cell viability (log2) [14]: active: -1.59
cell viability (log2) [15]: active: -1.94
cell viability (log2) [16]: active: -1.78

O=C(NC[C@H]1CN(c2ccc(N3CCOCC3=O)cc2)C(=O)O1)c1ccc(Cl)s1
cell viability (log2) [5]: inactive: 0.0602
cell viability (log2) [6]: inactive: 0.0472
cell viability (log2) [7]: inactive: 0.05
cell viability (log2) [8]: inactive: -0.0342
cell viability (log2) [9]: inactive: 0.0339
cell viability (log2) [10]: inactive: 0.0765
cell viability (log2) [11]: inactive: -0.0103
cell viability (log2) [12]: inactive: -0.0135
cell viability (log2) [13]: inactive: 0.04
cell viability (log2) [14]: inactive: 0.0525
cell viability (log2) [15]: inactive: 0.00981
cell viability (log2) [16]: inactive: 0.0595

CC(C)c1c(O)c(-c2cc3c(c(C(C)C)c2O)CCC2C(C)(C)CCCC32C)cc2c1CCC1C(C)(C)CCCC21C (stereo not given)
cell viability (log2) [1]: inactive: 0.108
cell viability (log2) [2]: inactive: 0.109
cell viability (log2) [3]: inactive: 0.0993
cell viability (log2) [4]: inactive: 0.112

C[C@@H]1C[C@H]2[C@@H]3C[C@H](F)C4=CC(=O)C=C[C@]4(C)[C@@]3(F)[C@@H](O)C[C@]2(C)[C@@]1(O)C(=O)CO
cell viability (log2) [1]: inactive: 0.125
cell viability (log2) [2]: inactive: -0.264
cell viability (log2) [3]: inactive: 0.116
cell viability (log2) [4]: inactive: -0.238

CCCCCCCCCCCCCCCCOC[C@H](COCC(F)(F)F)OP(=O)(O)OC
cell viability (log2) [17]: inactive: 0.136
cell viability (log2) [18]: inactive: 0.0651
cell viability (log2) [19]: inactive: 0.156
cell viability (log2) [20]: inactive: 0.0669

CCCCCCCCCCCCCCC[C@@H](O)[C@H](CO)NC(C)=O
cell viability (log2) [17]: inactive: 0.176
cell viability (log2) [18]: inactive: 0.139
cell viability (log2) [19]: inactive: 0.0603
cell viability (log2) [20]: inactive: 0.124

CC[C@H](/C=C/[C@@H](C)[C@H]1CC[C@H]2[C@@H]3CC=C4C[C@@H](O)CC[C@]4(C)[C@H]3CC[C@]12C)C(C)C
cell viability (log2) [1]: inactive: 0.0801
cell viability (log2) [2]: inactive: -0.0327
cell viability (log2) [3]: inactive: 0.107
cell viability (log2) [4]: inactive: 0.0318

CC1(C)CC2C1CCC1(CBr)CCC3C(CC(=O)O)C(=O)OC32C1 (stereo not given)
cell viability (log2) [1]: inactive: 0.146
cell viability (log2) [2]: inactive: 0.038
cell viability (log2) [3]: inactive: 0.195
cell viability (log2) [4]: inactive: 0.152

CN1C2CCC1CC(OC(=O)c1c[nH]c3ccccc13)C2 (stereo not given)
cell viability (log2) [5]: inactive: 0.0845
cell viability (log2) [6]: inactive: -0.0434
cell viability (log2) [17]: inactive: 0.133
cell viability (log2) [18]: inactive: 0.121
cell viability (log2) [7]: inactive: 0.0437
cell viability (log2) [8]: inactive: 0.102
cell viability (log2) [9]: inactive: 0.134
cell viability (log2) [10]: inactive: 0.0719
cell viability (log2) [19]: inactive: 0.136
cell viability (log2) [20]: inactive: 0.0412
cell viability (log2) [11]: inactive: 0.0507
cell viability (log2) [12]: inactive: 0.00358
cell viability (log2) [13]: inactive: -0.033
cell viability (log2) [14]: inactive: 0.0845
cell viability (log2) [15]: inactive: 0.0754
cell viability (log2) [16]: inactive: 0.0209

Cc1nnc(C(=O)NC(C)(C)c2nc(C(=O)NCc3ccc(F)cc3)c(O)c(=O)n2C)o1
cell viability (log2) [5]: inactive: 0.13
cell viability (log2) [6]: inactive: 0.0901
cell viability (log2) [7]: inactive: 0.0867
cell viability (log2) [8]: inactive: 0.123
cell viability (log2) [9]: inactive: 0.2
cell viability (log2) [10]: inactive: 0.162
cell viability (log2) [11]: inactive: 0.101
cell viability (log2) [12]: inactive: 0.0695
cell viability (log2) [13]: inactive: 0.101
cell viability (log2) [14]: inactive: 0.124
cell viability (log2) [15]: inactive: 0.163
cell viability (log2) [16]: inactive: 0.12

CCC(C)CCCCC(=O)NC(CCNCS(=O)(=O)O)C(=O)NC(C(=O)NC(CCNCS(=O)(=O)O)C(=O)NC1CCNC(=O)C(C(C)O)NC(=O)C(CCNCS(=O)(=O)O)NC(=O)C(CCNCS(=O)(=O)O)NC(=O)C(CC(C)C)NC(=O)C(CC(C)C)NC(=O)C(CCNCS(=O)(=O)O)NC1=O)C(C)O (stereo not given)
cell viability (log2) [1]: inactive: 0.117
cell viability (log2) [2]: inactive: 0.0486
cell viability (log2) [3]: inactive: 0.103
cell viability (log2) [4]: inactive: -0.0146
